# Screen size: about 340,000 compounds; about 6,900 (2%) were called active. No stated cut-off is given here; in the data, active means inhibition above about 30%; inactive means below that, where a call was filed. The list shows a part of the results, in another mix than the full data. The source gives no active or inactive call for entries shown without one.
# Target: D(2) dopamine receptor (Homo sapiens) (UniProt P14416)
# Experiment: HTS Assay for Allosteric Antagonists of the Human D2 Dopamine Receptor: Primary Screen for Antagonists; further: 0% is about no effect
# Conditions: HEK293 TREx D2 cells, calcium flux, dopamine EC80; at 10 µM; stronger effect = higher value
# Method in brief: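 In this primary screen, negative modulation is detected by tracking calcium flux after an EC80 dopamine challenge in inducible HEK293 T-REx D2 cells preexposed to test compound for 180 s.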
# Sequence of UniProt P14416 (P14416 whole entry, looked up): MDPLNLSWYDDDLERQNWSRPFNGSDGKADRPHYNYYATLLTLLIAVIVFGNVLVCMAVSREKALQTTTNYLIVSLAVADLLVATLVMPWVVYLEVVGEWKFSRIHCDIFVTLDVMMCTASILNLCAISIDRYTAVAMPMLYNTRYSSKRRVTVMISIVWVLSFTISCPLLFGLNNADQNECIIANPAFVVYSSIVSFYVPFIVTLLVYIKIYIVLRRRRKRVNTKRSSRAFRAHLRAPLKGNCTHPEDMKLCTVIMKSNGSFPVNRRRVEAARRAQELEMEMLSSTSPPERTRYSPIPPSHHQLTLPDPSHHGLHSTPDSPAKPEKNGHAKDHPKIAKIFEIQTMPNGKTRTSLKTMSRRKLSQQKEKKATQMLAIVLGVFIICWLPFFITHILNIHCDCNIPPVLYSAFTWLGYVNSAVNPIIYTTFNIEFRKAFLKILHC
row,SMILES,inhibition
1,CCCc1cc(=O)oc2c(C)c3c(cc12)CN(CCc1ccc(Cl)cc1)CO3,1.43%
2,Cc1ccc2oc(-c3cc(NC(=O)CC(C)C)ccc3Cl)nc2c1,7.55%
3,Cc1ccc2c(c1)Cc1c(nc(-c3ccc(F)cc3)nc1SCC(=O)N1CCCCC1)O2,-5.8%
4,CCS(=O)(=O)c1ccc2oc(Nc3ccc(OC)cc3)nc2c1,active: 34%
5,CCOC(=O)c1c(C)[nH]c(C)c1S(=O)(=O)N1CCCC(C(=O)NCc2ccccc2Cl)C1 (stereo unspecified),-4.01%
6,COc1ccccc1CNC(=O)CN(c1ccccc1OC)S(C)(=O)=O,5.81%
7,COc1ccc(C(=O)Nc2nnc(S(=O)(=O)N(C)c3ccc(C)cc3)s2)cc1,13.8%
8,COc1ccc(C(=O)Nc2nnc(S(=O)(=O)N3CCN(c4ccc(F)cc4)CC3)s2)cc1,-19.4%
9,CCc1ccccc1Nc1ncnc2c1cnn2-c1ccc(C)cc1C,25.7%
10,COc1cccc(CNC(=O)c2cc3c(=O)n(Cc4cccnc4)ccc3nc2C)c1,-2.79%
11,Cc1ccc(NC(=O)CSc2nc3c(sc4ccccc43)c(=O)n2CCCC(=O)NC2CCCC2)cc1C,-3.78%
12,CC(C)COc1ccc(C(=O)Nc2nnc(S(=O)(=O)N(C)Cc3ccco3)s2)cc1,-22%
13,CCc1cccc(NC(c2ccccc2)c2nnc(-c3ccccc3F)o2)c1 (stereo unspecified),-25.9%
14,CCOc1ccc(Br)cc1S(=O)(=O)N1CCC(C(=O)O)CC1,active: 39.3%
15,CCOc1cc(CNC(=O)NC2COc3ccccc3C2)cc(OCC)c1OCC (stereo unspecified),8.38%
16,COc1ccc(OC)c(-c2csc(-c3c(N)c(C(=O)c4ccc(Cl)cc4)n4ccccc34)n2)c1,-2.84%
17,Cc1ccc(OCC(=O)Nc2nnc(SCc3cc(=O)n4cccc(C)c4n3)s2)cc1,7.53%
18,CC(C)c1ccc(NC(=O)c2cnc3sc(N4CCCC4)nn3c2=O)cc1,10.9%
19,CCOc1ccc(-c2nonc2NC(=O)c2ccco2)cc1OCC,-5.26%
20,CCOc1ccccc1CNC(=O)c1cc2c(=O)n(Cc3ccco3)ccc2nc1C,3.76%
21,COc1ccc(C(=O)COc2nc(C)cc(C)c2C#N)cc1,active: 34.9%

row,SMILES,inhibition
1,CCOC(=O)c1cc(-c2ccccc2)n(CC(=O)NCc2ccccc2)c1C,-0.101%
2,Cc1ccc(C)c(Cn2c(=O)n(CCCC(=O)NCCc3ccc(Cl)cc3)c(=O)c3ccccc32)c1,13.1%
3,O=c1c(Cc2ccc(F)cc2)c(O)ccn1Cc1ccc(Cl)cc1Cl,active: 44.2%
4,O=C(COc1ccc(Cl)cc1)NCC(c1cccs1)S(=O)(=O)c1ccc(F)cc1 (stereo unspecified),25.8%
5,CC1=C(C(=O)N2CCN(c3ccc(Cl)cc3)CC2)C2(CCC(C)CC2)OC1=O (stereo unspecified),21.7%
6,O=C(Cn1c(=O)n(Cc2ccccc2)c(=O)c2sc3ccccc3c21)Nc1ccc(F)cc1,3.09%
7,CCCCN(CC)CCCNC(=O)c1cc2c(=O)oc3ccc(C)cc3c2s1,-2.91%
8,CCOc1ccc(S(=O)(=O)NCc2nc3cccnc3n2Cc2ccccc2OC)cc1,-8.99%
9,CCOC(=O)C1CCN(C(=O)c2ccc3c(c2)sc2nc(-c4ccc(OC)cc4)cn23)CC1,-1.06%
10,CCCCNC(=O)CSc1nc2n[nH]c(C)c2c(=N)n1-c1cccc(C)c1,8.77%
11,CCCOc1ccc(-c2nc3ccc(Br)cc3c(=O)o2)cc1,-12.9%
12,Cc1nc2ccc(S(=O)(=O)NC(CC(C)C)C(=O)NCc3ccc(Cl)cc3)cc2s1 (stereo unspecified),2.75%
13,CC(C)C(C)(C#N)NC(=O)CSc1ncnc2sc(-c3ccccc3)cc12 (stereo unspecified),active: 31%
14,Cc1c(C(=O)OC2CCCCCC2)[nH]c2c1C(=O)CC(c1ccccc1)C2 (stereo unspecified),2.18%
15,CCc1ccc(OC(=O)c2cccnc2)cc1,active: 32.1%
16,COc1ccc(C2=NC(C)(C)N(CC(=O)Nc3cc(OC)cc(OC)c3)C2=O)cc1,2.22%
17,CN(c1ccc(F)cc1)S(=O)(=O)N1CCCC(C(=O)NCCc2ccccc2)C1 (stereo unspecified),-3.4%
18,CCN1CCN(c2cc(C)c3cc(NC(=O)/C=C/c4cccc(OC)c4OC)ccc3n2)CC1,2.98%
19,Cc1ccc(-c2cc3nccc(-c4cc([N+](=O)[O-])ccc4O)n3n2)cc1,-1.27%
20,CC(=O)NC(C)c1nc2ccccc2n1Cc1ccccc1Cl (stereo unspecified),-0.292%
21,CCOC(=O)N1CCN(c2ncc3c(n2)CC(c2ccc(Cl)cc2)CC3=O)CC1 (stereo unspecified),6.26%

row,SMILES,inhibition
1,COc1ccc(S(=O)(=O)N2CCC(N3CCN(c4ccccc4)CC3)CC2)cc1,active: 61.4%
2,COc1ccc(C2C(C(=O)Nc3cccnc3)=C(C)Nc3nc(SCc4ccccc4)nn32)cc1 (stereo unspecified),1.43%
3,Cc1ccc(C)c(NC(=O)C2CCCN2S(=O)(=O)c2ccc3c(c2)n(C)c(=O)c(=O)n3C)c1 (stereo unspecified),-4.1%
4,COc1cc(-c2noc(-c3ccc(NC4CCCC4)c([N+](=O)[O-])c3)n2)cc(OC)c1OC,10.6%
5,CCOC(=O)CCCCN(Cc1ccccc1F)S(=O)(=O)c1ccc(F)c(C(=O)Nc2cc(Cl)cc(Cl)c2)c1,16.7%
6,CCOc1ccc(NC(=O)Nc2cc3c(cc2N2CCCCC2)n(C)c(=O)n3C)cc1,18.2%
7,O=C(NCc1ccc(F)cc1)c1nnc(Cc2cccc(F)c2)o1,22.1%
8,COc1ccc(-c2noc(-c3cc(-c4ccc(F)cc4)n[nH]3)n2)cc1,-1.46%
9,C=CCc1cccc2cc(-c3nc4ccc(C(=O)O)cc4[nH]3)c(=O)oc12,-8.01%
10,CCCN(CC(=O)Nc1ccccc1C)C(=O)c1ccc(C(=O)c2ccccc2)cc1,active: 42.8%
11,O=C(Nc1ccccc1Br)c1cc(S(=O)(=O)NC2CCCCC2)ccc1F,-20.3%
12,COc1cc(NC(=O)CN2CCCN(S(=O)(=O)c3ccc(F)cc3)CC2)cc(OC)c1,5.05%
13,CCOC(=O)c1cc(S(=O)(=O)Nc2c(C)cc(C)cc2C)[nH]n1,-9.86%
14,Cc1ccc2nc(-c3ccc(NC(=O)COc4ccccc4C(C)(C)C)cc3)sc2c1,1.68%
15,Cc1ccc2oc(C(=O)Nc3cccc(-c4nc5ccccc5s4)c3)c(C)c2c1,1.79%
16,Cc1ccc(Nc2ncc(C(=O)N3CCN(c4cccc(Cl)c4)CC3)c3ccccc23)cc1Cl,-13.9%
17,COc1ccccc1C(=O)c1cn(CC(=O)Nc2ccccc2F)c2nc(C)ccc2c1=O,-1.8%
18,Cc1ccc(C)c(N2CCN(C(=O)c3cc(S(=O)(=O)N4CCC(C)CC4)cn3C)CC2)c1,14.8%
19,COc1ccc(CC(=O)NCC(c2cccs2)S(=O)(=O)c2ccc(Cl)cc2)cc1 (stereo unspecified),12.6%

# Source: PubChem BioAssay AID485344 (National Center for Advancing Translational Sciences (NCATS), 2010)
